From the supplement of paper PMC4604168 (melanoma cell lines)
Some of the results follow. Repeats are few or missing, and single values can be far off.

Assays:
Assay in all cases: cell count relative to DMSO control; melanoma cells; higher = more viable cells
Details in all cases: library dose: low library concentration; 72 h
COLO792 = tested on: COLO792
COLO800 = tested on: COLO800
COLO829 = tested on: COLO829
G361 = tested on: G361
IPC-298 = tested on: IPC-298
IST-MEL1 = tested on: IST-MEL1
LOXIMVI = tested on: LOXIMVI
MEL-HO = tested on: MEL-HO
LB2518-MEL = tested on: LB2518-MEL
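Note: cell number obtained by counting DAPI-stained nuclei in high-throughput microscope images with image analysis software, screen run in 1,536-well plates.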

SMILES	cell count (COLO792)	cell count (COLO800)	cell count (COLO829)	cell count (G361)	cell count (IPC-298)	cell count (IST-MEL1)	cell count (LOXIMVI)	cell count (MEL-HO)	cell count (LB2518-MEL)
Cc1ccc(Nc2nccc(N(C)c3ccc4c(C)n(C)nc4c3)n2)cc1S(N)(=O)=O [Pazopanib] + CC(C)CCN1c2nc(Nc3cc(F)c(O)c(F)c3)ncc2N(C)C(=O)C1C [BID1870] (first compound 0.4 µM, partner dose 0.2 µM)	89.6%	115%	99.4%	85.2%	84%	97.4%	91.5%	92%	
CC1(C)CCC(c2ccc(Cl)cc2)=C(CN2CCN(c3ccc(C(=O)NS(=O)(=O)c4ccc(N[C@H](CCN5CCOCC5)CSc5ccccc5)c(S(=O)(=O)C(F)(F)F)c4)cc3)CC2)C1 + CCN(CC)CCCCNc1ncc2cc(-c3cc(OC)cc(OC)c3)c(NC(=O)NC(C)(C)C)nc2n1 [PD173074] (first compound 0.4 µM, partner dose 0.1 µM)	58.2%	90.2%	108%	83.9%	98%	79.5%	52.5%	71.9%	85.7%
Cc1ccc(Nc2nccc(N(C)c3ccc4c(C)n(C)nc4c3)n2)cc1S(N)(=O)=O [Pazopanib] + O=C(O)c1ccc(-c2c[nH]c3ncc(-c4ccccc4)cc23)cc1C1CCCC1 [GSK650394] (first compound 0.4 µM, partner dose 0.16 µM)	108%	108%	93.6%	104%	80%	88.1%	99.9%	100%	
Cc1ccc(Nc2nccc(N(C)c3ccc4c(C)n(C)nc4c3)n2)cc1S(N)(=O)=O [Pazopanib] + O=c1cc(-c2cccc3c2Sc2ccccc2S3)oc(N2CCOCC2)c1 [KU55933] (first compound 0.4 µM, partner dose 1 µM)	95.4%	103%	119%	86.8%	78.6%	107%	111%	105%	128%
CC1(C)CCC(c2ccc(Cl)cc2)=C(CN2CCN(c3ccc(C(=O)NS(=O)(=O)c4ccc(N[C@H](CCN5CCOCC5)CSc5ccccc5)c(S(=O)(=O)C(F)(F)F)c4)cc3)CC2)C1 + CC1(C)NC(=O)N(c2ccc([N+](=O)[O-])c(C(F)(F)F)c2)C1=O [nilutamide] (first compound 0.4 µM, partner dose 1 µM)	78.5%	52.9%	106%	92.6%	94.1%	73.5%	69.4%	76.5%	106%
CC1(C)CCC(c2ccc(Cl)cc2)=C(CN2CCN(c3ccc(C(=O)NS(=O)(=O)c4ccc(N[C@H](CCN5CCOCC5)CSc5ccccc5)c(S(=O)(=O)C(F)(F)F)c4)cc3)CC2)C1 + O=C(Nc1ccccc1)c1cc([N+](=O)[O-])ccc1Cl [GW9662] (first compound 0.4 µM, partner dose 2 µM)	76.6%	52.2%	91.1%	91.5%	102%	69.1%	52.5%	94.3%	83.4%
O=C(/C=C/c1cccnc1)NCCCCC1CCN(C(=O)c2ccccc2)CC1 + OCCn1cc(-c2cnc3nnn(Cc4ccc5ncccc5c4)c3n2)cn1 [PF04217903] (first compound 0.01 µM, partner dose 1 µM)	58.7%	22.1%	72.7%	10.8%	42.9%	68.5%	77.2%	52.8%	73.6%
CC1(C)CCC(c2ccc(Cl)cc2)=C(CN2CCN(c3ccc(C(=O)NS(=O)(=O)c4ccc(N[C@H](CCN5CCOCC5)CSc5ccccc5)c(S(=O)(=O)C(F)(F)F)c4)cc3)CC2)C1 + O=C(CCCCCCC(=O)Nc1ccccc1)NO [vorinostat] (first compound 0.4 µM, partner dose 0.08 µM)	66.8%	50.4%	114%	90.4%	101%	81.9%	48.7%	77.6%	106%
O=C(/C=C/c1cccnc1)NCCCCC1CCN(C(=O)c2ccccc2)CC1 + CCN(CC)CCCCNc1ncc2cc(-c3cc(OC)cc(OC)c3)c(NC(=O)NC(C)(C)C)nc2n1 [PD173074] (first compound 0.01 µM, partner dose 0.1 µM)	58.5%	47.1%	87.1%	11.8%	52.6%	70.5%	108%	51.9%	
O=C(/C=C/c1cccnc1)NCCCCC1CCN(C(=O)c2ccccc2)CC1 + O=C(Nc1cccc(Cl)c1)Nc1ncc(CCNc2ncnc3ccsc23)s1 [SNS314] (first compound 0.01 µM, partner dose 0.0008 µM)	63.9%	19.9%	75.8%	11.6%	43.7%	67.7%	64.6%	42.4%	96.1%
O=C(/C=C/c1cccnc1)NCCCCC1CCN(C(=O)c2ccccc2)CC1 + CC(C)CCN1c2nc(Nc3cc(F)c(O)c(F)c3)ncc2N(C)C(=O)C1C [BID1870] (first compound 0.01 µM, partner dose 0.2 µM)	53.5%	25.8%	43.5%	9.64%	39.6%	66%	77.7%	40.8%	80.9%
CC1(C)CCC(c2ccc(Cl)cc2)=C(CN2CCN(c3ccc(C(=O)NS(=O)(=O)c4ccc(N[C@H](CCN5CCOCC5)CSc5ccccc5)c(S(=O)(=O)C(F)(F)F)c4)cc3)CC2)C1 + O=C(Nc1cccc(Cl)c1)Nc1ncc(CCNc2ncnc3ccsc23)s1 [SNS314] (first compound 0.4 µM, partner dose 0.0008 µM)	63.3%	59.3%	95.7%	85.3%	104%	72.5%	45%	84.8%	
O=C(/C=C/c1cccnc1)NCCCCC1CCN(C(=O)c2ccccc2)CC1 + NCC(=O)Nc1ccc(-n2nc(C(F)(F)F)cc2-c2ccc3c(ccc4ccccc43)c2)cc1 [OSU03012] (first compound 0.01 µM, partner dose 1 µM)	69.5%	21.4%	76.6%	11.8%	40.6%	81.7%	89.9%	44.1%	
Cc1ccc(Nc2nccc(N(C)c3ccc4c(C)n(C)nc4c3)n2)cc1S(N)(=O)=O [Pazopanib] + NC(=O)Nc1cc(-c2cccc(F)c2)sc1C(=O)N[C@H]1CCCNC1 [AZD7762] (first compound 0.4 µM, partner dose 0.02 µM)	104%	81.2%	90.7%	103%	84.9%	116%	71.4%	114%	103%
Cc1ccc(Nc2nccc(N(C)c3ccc4c(C)n(C)nc4c3)n2)cc1S(N)(=O)=O [Pazopanib] + OCCn1cc(-c2cnc3nnn(Cc4ccc5ncccc5c4)c3n2)cn1 [PF04217903] (first compound 0.4 µM, partner dose 1 µM)	98.4%	116%	106%	118%	78.9%	108%	107%	97.7%	80.2%
CC1(C)CCC(c2ccc(Cl)cc2)=C(CN2CCN(c3ccc(C(=O)NS(=O)(=O)c4ccc(N[C@H](CCN5CCOCC5)CSc5ccccc5)c(S(=O)(=O)C(F)(F)F)c4)cc3)CC2)C1 + CCCCCCCCCCCC1=C(O)C(=O)C=C(O)C1=O [Embelin] (first compound 0.4 µM, partner dose 1.2 µM)	50.2%	54.7%	96.2%	78.2%	101%	78.1%	154%	63.1%	90.2%
CC1(C)CCC(c2ccc(Cl)cc2)=C(CN2CCN(c3ccc(C(=O)NS(=O)(=O)c4ccc(N[C@H](CCN5CCOCC5)CSc5ccccc5)c(S(=O)(=O)C(F)(F)F)c4)cc3)CC2)C1 + N#Cc1c(O)c2c(-c3ccc(-c4ccccc4O)cc3)csc2[nH]c1=O [A769662] (first compound 0.4 µM, partner dose 2 µM)	48.6%	74.4%	116%	92.4%	109%	85.7%	62.2%	74.2%	104%
